Reference: the supplement of paper PMC4996465

What was measured:
[1] = tested on: KB3-1; assay: viability (% of DMSO control); higher = more viable cells
Procedure: (§1)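 Eleven-dose screen of the NCATS MIPE 3 library on cells without co-treatment; CellTiter-Glo after 48 h, as % of DMSO wells.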

[2] = tested on: Nalm-6; assay: as above
Procedure: as §1

[3] = tested on: KB3-1; assay: log AC50 of viability decrease (48 h) (log10 M); higher = less potent
Procedure: (§2)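 Eleven-dose screen of the NCATS MIPE 3 library on cells without co-treatment; CellTiter-Glo after 48 h. AC50 from the curve fit; only inhibitory curves of the better fit classes are listed.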

[4] = tested on: Nalm-6; assay: as above
Procedure: as §2

| Structure (SMILES) | viability ([1]; 0.00078 µM) [%] | viability ([1]; 0.00234 µM) [%] | viability ([1]; 0.00702 µM) [%] | viability ([1]; 0.0211 µM) [%] | viability ([1]; 0.0632 µM) [%] | viability ([1]; 0.19 µM) [%] | viability ([1]; 0.569 µM) [%] | viability ([1]; 1.71 µM) [%] | viability ([1]; 5.12 µM) [%] | viability ([1]; 15.4 µM) [%] | viability ([1]; 46.1 µM) [%] | viability ([2]; run: 1, 0.00078 µM) [%] | viability ([2]; run: 1, 0.00234 µM) [%] | viability ([2]; run: 1, 0.00702 µM) [%] | viability ([2]; run: 1, 0.0211 µM) [%] | viability ([2]; run: 1, 0.0632 µM) [%] | viability ([2]; run: 1, 0.19 µM) [%] | viability ([2]; run: 1, 0.569 µM) [%] | viability ([2]; run: 1, 1.71 µM) [%] | viability ([2]; run: 1, 5.12 µM) [%] | viability ([2]; run: 1, 15.4 µM) [%] | viability ([2]; run: 1, 46.1 µM) [%] | viability ([2]; run: 2, 0.00078 µM) [%] | viability ([2]; run: 2, 0.00234 µM) [%] | viability ([2]; run: 2, 0.00702 µM) [%] | viability ([2]; run: 2, 0.0211 µM) [%] | viability ([2]; run: 2, 0.0632 µM) [%] | viability ([2]; run: 2, 0.19 µM) [%] | viability ([2]; run: 2, 0.569 µM) [%] | viability ([2]; run: 2, 1.71 µM) [%] | viability ([2]; run: 2, 5.12 µM) [%] | viability ([2]; run: 2, 15.4 µM) [%] | viability ([2]; run: 2, 46.1 µM) [%] | log AC50 of viability decrease [3] | log AC50 of viability decrease ([4]; run: 1) | log AC50 of viability decrease ([4]; run: 2) |
| --- | --- | --- | --- | --- | --- | --- | --- | --- | --- | --- | --- | --- | --- | --- | --- | --- | --- | --- | --- | --- | --- | --- | --- | --- | --- | --- | --- | --- | --- | --- | --- | --- | --- | --- | --- | --- |
| CNC(=O)c1cc(Oc2ccc(NC(=O)Nc3cc(C(C)(C)C)nn3-c3ccc4ncccc4c3)c(F)c2)ccn1 [DCC-2036] | 106 | 105 | 102 | 108 | 102 | 107 | 106 | 104 | 110 | 88.1 | 13.8 | 116 | 123 | 130 | 114 | 114 | 97.4 | 95.5 | 83.8 | 26.7 | 11.8 | 2.98 | 110 | 111 | 116 | 113 | 109 | 107 | 94.9 | 91 | 70.8 | 8.43 | 3.07 | -4.63 | -5.58 | -5.18 |
| CC(C)(C)c1[nH]cnc1/C=c1\[nH]c(=O)/c(=C/c2ccccc2)[nH]c1=O [Plinabulin] | 99.3 | 98.1 | 92.1 | 31.8 | 27.7 | 29.2 | 28.1 | 27.7 | 24 | 24.4 | 30.4 | 112 | 105 | 76.7 | 21.5 | 13.4 | 15.8 | 15.7 | 15.1 | 15.2 | 11.2 | 3 | 113 | 115 | 64.7 | 13.3 | 9.98 | 10.6 | 11.3 | 9.86 | 11.9 | 8.44 | 3.11 | -7.93 | -8.03 | -8.13 |
| CO[C@@H]1[C@H](N(C)C(=O)c2ccccc2)C[C@H]2O[C@]1(C)n1c3ccccc3c3c4c(c5c6ccccc6n2c5c31)C(=O)NC4 [Midostaurin] | 100 | 98 | 96.9 | 95 | 94.1 | 89.6 | 65.8 | 64.9 | 45.4 | 38.2 | 34 | 99.7 | 110 | 113 | 109 | 105 | 82.1 | 52.4 | 43.9 | 37.2 | 36.7 | 33.1 | 103 | 106 | 105 | 101 | 103 | 72.3 | 66.6 | 53.8 | 48 | 38.2 | 30.3 | -5.98 | -6.58 | -6.33 |
| CCCCCCCc1ccc(CCc2cccc(O)c2C(=O)O)cc1 [MG-149] | 107 | 106 | 108 | 108 | 113 | 111 | 106 | 106 | 95.8 | 96 | 66.9 | 105 | 113 | 116 | 110 | 112 | 121 | 122 | 117 | 126 | 106 | 36.1 | 109 | 106 | 110 | 113 | 106 | 110 | 110 | 106 | 106 | 97.8 | 46.7 | -4.73 | – | -4.63 |
| CO[C@@H](C(=O)N1Cc2[nH]nc(NC(=O)c3ccc(N4CCN(C)CC4)cc3)c2C1)c1ccccc1 [Danusertib] | 97.1 | 97.8 | 99.2 | 96.6 | 92.7 | 97.6 | 94.1 | 83.1 | 84 | 81.8 | 14 | 83.7 | 82.6 | 58.5 | 45 | 45.4 | 45.9 | 41.2 | 40.5 | 29.7 | 23.7 | 3.48 | 105 | 92.4 | 79.9 | 73.3 | 59.3 | 54.6 | 40.7 | 39.6 | 30.1 | 16.8 | 2.79 | -4.63 | -6.83 | -6.48 |

Viability of KB3-1 and Nalm-6 cells after 48 h of drug alone (CellTiter-Glo), 11 doses over about 4.5 log units. % of DMSO wells, lower = more cell loss; AC50 from the fitted curve, lower = more potent. No active / inactive call. Nalm-6 was screened in two runs. AC50 is listed only for well-fitted inhibitory curves. KB3-1 is a HeLa-derived carcinoma line, Nalm-6 a B-cell precursor leukaemia line.
